Test results reported in PubChem BioAssay AID1508624 (National Center for Advancing Translational Sciences (NCATS), 2021).
The whole screen tested about 48,000 compounds, of which about 120 (0.25%) were called active. Another 4% or so got no clear call; they are omitted. Calls follow the shape of the dose curve; as a rule, active = well fitted activation curve with a large enough effect; inconclusive = small, poorly fitted or top-dose-only effect, or another doubt; inactive = no such curve, though single readings can be large or run the other way. The list shows a part of the results.

Assay: Primary qHTS for Identification of Small Molecule Activators of Huntingtin-Antisense Promoter Activity; also: nearly all actives have a fitted effect of over 55% in size
Conditions: HEK293 HTT-AS promoter firefly luciferase reporter (activity 0% = vehicle and -100% = no light), 24 h; series mostly up to 57.5 µM; activity change, positive = activation: at the top concentration
Procedure, shortened: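 HEK293 Fluc reporter, 2,500 cells/well, 24 h pre-culture; cpds up to 57.5 uM final, 24 h 37 degrees C; Dual-Glo, 10 min RT; normalized vehicle = 0%, zero RLU = -100%.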

Activity change, positive = activation, inactive:
CN(C(=O)CSc1nc(C2CCCC2)nc2c1c(=O)n(C)c(=O)n2C)c1ccccc1 -37.4%, Cc1cccc(C)c1OC(=O)CSc1nnc(CNC(=O)c2ccccc2)o1 -23.9%, COc1ccc(NC(=O)c2oc3ccccc3c2NC(=O)C23CC4CC(CC(C4)C2)C3)c(OC)c1 -1.18%, COc1ccc2c(c1)c(CC(=O)Nc1ccc(C(C)=O)cc1)c(C)n2C(=O)c1ccc(Cl)cc1 -5.02%, COc1ccc(S(=O)(=O)NCCS(=O)(=O)N2CCN(c3ccccc3)CC2)cc1OC -14.8%, Cc1ccc(NC(=O)c2oc3ccccc3c2NC(=O)c2ccc(F)c(F)c2)cc1 -6.25%, CCc1ccc(NC(=O)CSc2nc3c(oc4ccccc43)c(=O)n2-c2cccc(C)c2)cc1 -18%, CCc1cccc(CC)c1NC(=O)C(Cc1ccccc1)NS(=O)(=O)c1cccc2nsnc12 (stereo not drawn) -21.9%, Cc1ccc(NC(=O)c2ccc(CN3CCN(C)CC3)cc2)cc1Nc1nccc(-c2cccnc2)n1, Cc1ccc(CNC(=O)CCCCCn2c(=O)c3sccc3n(CC(=O)Nc3ccc(C)c(F)c3)c2=O)cc1 1.49%, CC(C)CN(CCCNC(=O)c1cc(=O)[nH]c2ccc(S(=O)(=O)N3CCCC3)cc12)CC(C)C -18.4%, CCc1cnc2c(c1SCc1ccccc1C)c(=O)n(C)c(=O)n2C -11.2%, COc1cccc(C(=O)NC(=NCCc2c[nH]c3ccc(OC)cc23)Nc2nc(C)cc(C)n2)c1 -40.6%, CN1CCc2c(sc(NC(=O)CSc3ccc(F)cc3)c2-c2nc3ccccc3s2)C1 -19%, CCN1C(C(=O)c2ccccc2)=C(OC(=O)COc2ccc(OC)cc2)c2ccccc2S1(=O)=O -31.5%, CCN(Cc1ccccc1)Cc1c(O)ccc2c(=O)c(-c3ccc(Cl)cc3)coc12 -7.72%, O=C(NCc1ccccc1Cl)c1cnc(N2CCOCC2)c2ccccc12 -9.08%, Cc1ccc(-c2cc(-c3coc4ccc(Cl)cc4c3=O)c3c(n2)-c2ccccc2OC3)cc1 -10.5%, CC(C)C(=O)Oc1ccc(CO)cc1[C@H](CCN(C(C)C)C(C)C)c1ccccc1 -10.9%, Cc1ccc2cccc(NC(=O)c3cccc4c(Cl)cccc34)c2n1 -12.9%, O=C(C1CCC(Cn2c(=O)c3sccc3n(Cc3ccccc3)c2=O)CC1)N1CCCCC1 (stereo not drawn) -21.7%, Cc1ccc(C)c(N2CCN(C(=O)CCNS(=O)(=O)c3ccc4c(c3)CCN4C(=O)C3CC3)CC2)c1 -44.7%, COc1ccc(OC)c(NC(=O)CC2C(=O)NCCN2C(=O)C(F)(F)F)c1 (stereo not drawn) -2.1%, CCOc1ccc(NC(=O)CCc2nc3cccnc3n2-c2ccccc2)cc1 -16.6%, CCOC(=O)c1ccc(NC(=O)C(Cc2ccccc2)N2Cc3ccccc3C2=O)cc1 (stereo not drawn) 3.82%, Cc1ccc(-c2nn3c(=O)cc(CN4CCN(C(=O)/C=C/c5ccccc5)CC4)nc3s2)cc1 -9.66%, CCn1c(=O)c2sccc2n2c(CCCC(=O)N3CCN(c4cccc(Cl)c4)CC3)nnc12 -8.18%, CCc1ccc(-c2cn3c(n2)sc2cc(C(=O)NCCC4=CCCCC4)ccc23)cc1 4.11%, CCOC(=O)c1ccc(NC(=O)CSc2cn(CC(=O)N3CCCC3)c3ccccc23)cc1 -22.7%, CCCOc1ccc(C(=O)Nc2ccc3oc(-c4cccc(Cl)c4Cl)nc3c2)cc1 -11.4%, COC(=O)c1ccc2c(c1)N(CC(=O)Nc1ccc(OC)c(Cl)c1)C(=O)c1ccccc1S2 -12.1%, Cc1ccc(-n2nc3c(N4CCCC(C(=O)NCc5ccc(Cl)cc5)C4)nnc(C)c3c2C)cc1 (stereo not drawn) -3.24%, O=C(CCS(=O)(=O)c1nc(-c2cccs2)cc(C(F)(F)F)n1)Nc1cc(Br)ccc1O -93.2%, CC(C)c1ccc(NC(=O)Cn2cc(S(=O)(=O)Cc3cccc(Cl)c3)c3ccccc32)cc1 -43.2%, COc1ccc(C(=O)Nc2nc3n(n2)C(c2ccccc2)C=C(c2ccccc2)N3)cc1 (stereo not drawn) -18.4%, Cc1ccc(NC(=O)Cn2c(=O)n(Cc3nc(C)no3)c(=O)c3cc4c(cc32)OCO4)c(C)c1 -9.55%, N#Cc1nc(COc2cccc(Cl)c2)oc1NCCc1ccccc1 -0.217%, CC(C)c1ccc(NC(=O)CSc2nc(=O)n(Cc3ccccn3)c3c2CCC3)cc1 -36%, CCOc1ccccc1C(=O)N(Cc1cc(OC)c(OC)c(OC)c1)c1ccccn1 -6.98%, CCCn1c(SCc2nc(-c3ccccc3OCC)no2)nnc1-c1ccc(Cl)cc1 -40.2%, COc1cc2c(cc1OC)n(CC(=O)c1cccc(Cl)c1)c(=O)n1nc(CCn3nc(C)cc3C)nc21 -15.9%, Cc1ccc(Nc2sc(C(=O)c3ccccc3)c(N)c2C(=O)Nc2ccc(Cl)cc2)cc1 -35.7%, CCOCCCNC(=O)c1cc(Sc2cccc(Cl)c2)nc2ccccc12 -18.5%, O=C(CCN1C(=O)c2ccccc2Sc2ncccc21)Nc1ccc(F)cc1F -15.2%, Cc1ccccc1C(=O)Nc1sc2c(c1C(=O)N1CCCCC1)CCC(C)C2 (stereo not drawn) -26.2%, COc1cccc(C(=O)N2c3ccc(C)cc3C(C)(c3ccccc3)CC2(C)C)c1 (stereo not drawn) -39.9%, COc1ccc(C2NC(=O)NC(C)=C2C(=O)Nc2ccccc2)cc1OC (stereo not drawn) -17.4%, Cc1ccc(CC(=O)Nc2ccc3c(c2)N(C)C(=O)c2ccccc2S3)cc1 -25.8%, O=C(NCc1cccnc1)C(=O)NCC(c1cccnc1)N1CCN(c2ccc(F)cc2)CC1 (stereo not drawn) -15.2%, CC1CCN(S(=O)(=O)c2ccc3c(c2)c(=O)c(C(=O)NCCc2ccccc2)cn3C)CC1 15.1%, CCCCN1C(=O)c2[nH]nc(-c3ccccc3O)c2C1c1ccc(OCc2ccccc2)cc1 (stereo not drawn) -89.8%, COc1ccc(S(=O)(=O)NCCc2csc3nc(-c4cccc(C)c4)nn23)cc1F -39.9%, COc1ccccc1CNC(=O)c1c(O)nc2c(C)cccn2c1=O -6.42%, COc1ccccc1NC(=O)CSc1nnc(NC(=O)Nc2ccc(C)cc2)s1 -27.3%, CN(C)CCNC(=O)c1ccc2c(c1)NC(=O)C(CS(=O)(=O)Cc1cccc(Br)c1)N2 (stereo not drawn) -12%, Cc1ccc(S(=O)(=O)N2CCCc3cc(NS(=O)(=O)c4cccc(Cl)c4)ccc32)cc1 -38.8%, CCc1ccc(NC(=O)C2CCCN2S(=O)(=O)c2ccc3c(c2)n(C)c(=O)c(=O)n3C)cc1 (stereo not drawn) -4.48%, COc1ccccc1CNC(=O)CN(C)c1nn2c(=O)cc(C)nc2s1 -6.03%
